According to the supplement of paper PMC4967469:
A lower IC50 marks a more sensitive line; fits outside the tested doses are given as limits. AUC, from the same fit, is the share of area under the viability curve across the 256-fold dose range; the more sensitive the line, the further below 1. For some assays here: Where the top dose is marked as inferred, it is not printed in the source and was worked back from the curve model. For some assays here: Drugs with an entry number were screened twice under separate entries, and the two screens often disagree.

Key:
Experiment in all cases: Viability of human cancer cell lines after 72 h of drug (GDSC screen)
SB-505124 = compound: Cc1cccc(-c2[nH]c(C(C)(C)C)nc2-c2ccc3c(c2)OCO3)n1 [SB-505124]; conditions: top dose 10 µM; top dose inferred
Experimental: (§1)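 Human cancer cell lines in 384-well plates, medium with 10% serum, drug for 72 h over a 256-fold dose range (nine 2-fold or five 4-fold steps up to the top dose). Adherent lines were fixed and stained with the nucleic acid dye Syto60, suspension lines read with resazurin; signal relative to control wells, capped at 0 and 100%. One two-parameter sigmoid per drug and line, fitted in a mixed model over all curves with the slope shared within a line.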

UNC0638 = compound: COc1cc2c(NC3CCN(C(C)C)CC3)nc(C3CCCCC3)nc2cc1OCCCN1CCCC1 [UNC0638]
Experimental: as §1

PI-103 = compound: Oc1cccc(-c2nc(N3CCOCC3)c3oc4ncccc4c3n2)c1 [PI-103]; conditions: top dose 10.24 µM
Experimental: as §1

GSK690693 = compound: CCn1c(-c2nonc2N)nc2c(C#CC(C)(C)O)ncc(OC[C@H]3CCCNC3)c21 [GSK690693]; conditions: top dose 10.24 µM; top dose inferred
Experimental: as §1

BX-795 = compound: O=C(NCCCNc1nc(Nc2cccc(NC(=O)N3CCCC3)c2)ncc1I)c1cccs1 [BX-795]; conditions: top dose 5 µM; top dose inferred
Experimental: as §1

Tretinoin = compound: CC1=C(/C=C/C(C)=C/C=C/C(C)=C/C(=O)O)C(C)(C)CCC1 [Tretinoin]; conditions: top dose 10 µM; top dose inferred
Experimental: as §1

[1] = top dose 20 µM, screen: GDSC drug entry 1236, top dose inferred
[2] = top dose 40 µM, screen: GDSC drug entry 245

Row | Cell Line | AUC (SB-505124) | IC50 (SB-505124) [µM] | AUC (UNC0638; [1]) | IC50 (UNC0638; [1]) [µM] | AUC (UNC0638; [2]) | IC50 (UNC0638; [2]) [µM] | AUC (PI-103) | IC50 (PI-103) [µM] | AUC (GSK690693) | IC50 (GSK690693) [µM] | AUC (BX-795) | IC50 (BX-795) [µM] | AUC (Tretinoin) | IC50 (Tretinoin) [µM]
1 | DOV13 (ovary, adherent) | 0.861 | > 10 | 0.776 | 9.22 | 0.799 | 22.6 | 0.967 | > 10.2 | 0.967 | > 10.2 | 0.801 | 2.9 | 0.927 | > 10
2 | Detroit562 (head and neck, adherent) | 0.987 | > 10 | 0.894 | > 20 | 0.986 | > 40 | 0.89 | > 10.2 | 0.979 | > 10.2 | 0.819 | 2.71 | 0.978 | > 10
3 | DoTc2-4510 (cervix, adherent) | 0.987 | > 10 | 0.963 | > 20 | 0.868 | 33.4 | 0.941 | > 10.2 | 0.986 | > 10.2 | 0.801 | 2.3 | 0.938 | > 10
4 | EBC-1 (lung squamous cell carcinoma, adherent) | 0.981 | > 10 | 0.912 | > 20 | 0.982 | > 40 | 0.527 | 0.766 | 0.976 | > 10.2 | 0.866 | > 5 | 0.883 | > 10
5 | ECC10 (stomach, suspension) | 0.914 | > 10 | 0.629 | 2.88 | 0.657 | 6.99 | 0.786 | 4.63 | 0.89 | > 10.2 | 0.772 | 2.02 | 0.891 | > 10
6 | EFM-192A (breast, adherent) | 0.944 | > 10 | 0.881 | > 20 | 0.839 | 31.9 | 0.985 | > 10.2 | 0.985 | > 10.2 | 0.937 | > 5 | 0.806 | 5.79
7 | EFO-21 (ovary, adherent) | 0.941 | > 10 | 0.951 | > 20 | 0.759 | 20 | 0.912 | > 10.2 | 0.91 | > 10.2 | 0.899 | > 5 | 0.954 | > 10
8 | EFO-27 (ovary, adherent) | 0.976 | > 10 | 0.806 | 13.4 | 0.749 | 15.9 | 0.613 | 1.42 | 0.717 | 3.13 | 0.895 | > 5 | 0.957 | > 10
9 | EGI-1 (biliary tract, adherent) | 0.979 | > 10 | 0.961 | > 20 | 0.962 | > 40 | 0.964 | > 10.2 | 0.982 | > 10.2 | 0.858 | > 5 | 0.914 | > 10
10 | EMC-BAC-1 (lung adenocarcinoma, adherent) | 0.964 | > 10 | 0.758 | 7.86 | 0.752 | 14.9 | 0.553 | 0.909 | 0.888 | > 10.2 | 0.81 | 3.09 | 0.966 | > 10
11 | EMC-BAC-2 (lung adenocarcinoma, adherent) | 0.969 | > 10 | 0.811 | 13.1 | 0.834 | 33.1 | 0.45 | 0.455 | 0.98 | > 10.2 | 0.669 | 1.02 | 0.977 | > 10
12 | EN (endometrium, adherent) | 0.982 | > 10 | 0.852 | > 20 | 0.713 | 11.9 | 0.646 | 1.82 | 0.784 | 5.61 | 0.868 | > 5 | 0.984 | > 10
13 | ESO26 (oesophagus, adherent) | 0.725 | 2.59 | 0.706 | 4.58 | 0.622 | 5.3 | 0.887 | > 10.2 | 0.893 | > 10.2 | 0.883 | 4.82 | 0.971 | > 10
14 | ESO51 (oesophagus, semi-adherent) | 0.942 | > 10 | 0.927 | > 20 | 0.813 | 33.9 | 0.975 | > 10.2 | 0.928 | > 10.2 | 0.913 | > 5 | 0.907 | > 10
15 | ESS-1 (endometrium, adherent) | 0.989 | > 10 | 0.787 | 7.77 | 0.676 | 7.29 | 0.762 | 3.32 | 0.98 | > 10.2 | 0.945 | > 5 | 0.99 | > 10
16 | EW-7 (Ewing sarcoma, semi-adherent) | 0.969 | > 10 | 0.766 | 6.51 | 0.605 | 4.68 | 0.535 | 0.789 | 0.397 | 0.347 | 0.902 | > 5 | 0.944 | > 10
